# Reference: PubChem BioAssay AID504333 (National Center for Advancing Translational Sciences (NCATS), 2011)
# The campaign covered roughly 360,000 compounds. About 16,000 (4.4%) were called active. This list was built around the results that the source calls inconclusive (neither active nor inactive); the mix of calls is not that of the screen. Calls follow the shape of the dose curve; as a rule, active = well fitted inhibition curve with a large enough effect; inconclusive = small, poorly fitted or top-dose-only effect; inactive = no such curve, though single readings can be large or run the other way. Potencies of inconclusive entries are doubtful fits and often do not repeat.
# Target: Bromodomain adjacent to zinc finger domain protein 2B (Homo sapiens) (UniProt Q9UIF8)
# Test: qHTS Assay for Inhibitors of BAZ2B; also: nearly all actives have a fitted effect of over 60% in size
# Settings: AlphaScreen BAZ2B-H3K14Ac peptide displacement; activity change, negative = inhibition: at 114 µM (top of the series)
# In short: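 Inhibition is scored as reduced AlphaScreen emission. The BAZ2B/b-H3(5-23)K14Ac complex (50 nM each) in PBS pH 7.4, 0.01% Tween-20 meets compound (up to 110 uM) for 30 min at RT before bead addition.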
# % is scaled to controls: 0 for no effect and ±100 for the full control effect; potency is read from the fitted curve at half-maximal effect; tags tell the direction and shape of the fitted curve.
# UniProt Q9UIF8, sequence (Q9UIF8 whole entry, looked up, the tested form may be a part): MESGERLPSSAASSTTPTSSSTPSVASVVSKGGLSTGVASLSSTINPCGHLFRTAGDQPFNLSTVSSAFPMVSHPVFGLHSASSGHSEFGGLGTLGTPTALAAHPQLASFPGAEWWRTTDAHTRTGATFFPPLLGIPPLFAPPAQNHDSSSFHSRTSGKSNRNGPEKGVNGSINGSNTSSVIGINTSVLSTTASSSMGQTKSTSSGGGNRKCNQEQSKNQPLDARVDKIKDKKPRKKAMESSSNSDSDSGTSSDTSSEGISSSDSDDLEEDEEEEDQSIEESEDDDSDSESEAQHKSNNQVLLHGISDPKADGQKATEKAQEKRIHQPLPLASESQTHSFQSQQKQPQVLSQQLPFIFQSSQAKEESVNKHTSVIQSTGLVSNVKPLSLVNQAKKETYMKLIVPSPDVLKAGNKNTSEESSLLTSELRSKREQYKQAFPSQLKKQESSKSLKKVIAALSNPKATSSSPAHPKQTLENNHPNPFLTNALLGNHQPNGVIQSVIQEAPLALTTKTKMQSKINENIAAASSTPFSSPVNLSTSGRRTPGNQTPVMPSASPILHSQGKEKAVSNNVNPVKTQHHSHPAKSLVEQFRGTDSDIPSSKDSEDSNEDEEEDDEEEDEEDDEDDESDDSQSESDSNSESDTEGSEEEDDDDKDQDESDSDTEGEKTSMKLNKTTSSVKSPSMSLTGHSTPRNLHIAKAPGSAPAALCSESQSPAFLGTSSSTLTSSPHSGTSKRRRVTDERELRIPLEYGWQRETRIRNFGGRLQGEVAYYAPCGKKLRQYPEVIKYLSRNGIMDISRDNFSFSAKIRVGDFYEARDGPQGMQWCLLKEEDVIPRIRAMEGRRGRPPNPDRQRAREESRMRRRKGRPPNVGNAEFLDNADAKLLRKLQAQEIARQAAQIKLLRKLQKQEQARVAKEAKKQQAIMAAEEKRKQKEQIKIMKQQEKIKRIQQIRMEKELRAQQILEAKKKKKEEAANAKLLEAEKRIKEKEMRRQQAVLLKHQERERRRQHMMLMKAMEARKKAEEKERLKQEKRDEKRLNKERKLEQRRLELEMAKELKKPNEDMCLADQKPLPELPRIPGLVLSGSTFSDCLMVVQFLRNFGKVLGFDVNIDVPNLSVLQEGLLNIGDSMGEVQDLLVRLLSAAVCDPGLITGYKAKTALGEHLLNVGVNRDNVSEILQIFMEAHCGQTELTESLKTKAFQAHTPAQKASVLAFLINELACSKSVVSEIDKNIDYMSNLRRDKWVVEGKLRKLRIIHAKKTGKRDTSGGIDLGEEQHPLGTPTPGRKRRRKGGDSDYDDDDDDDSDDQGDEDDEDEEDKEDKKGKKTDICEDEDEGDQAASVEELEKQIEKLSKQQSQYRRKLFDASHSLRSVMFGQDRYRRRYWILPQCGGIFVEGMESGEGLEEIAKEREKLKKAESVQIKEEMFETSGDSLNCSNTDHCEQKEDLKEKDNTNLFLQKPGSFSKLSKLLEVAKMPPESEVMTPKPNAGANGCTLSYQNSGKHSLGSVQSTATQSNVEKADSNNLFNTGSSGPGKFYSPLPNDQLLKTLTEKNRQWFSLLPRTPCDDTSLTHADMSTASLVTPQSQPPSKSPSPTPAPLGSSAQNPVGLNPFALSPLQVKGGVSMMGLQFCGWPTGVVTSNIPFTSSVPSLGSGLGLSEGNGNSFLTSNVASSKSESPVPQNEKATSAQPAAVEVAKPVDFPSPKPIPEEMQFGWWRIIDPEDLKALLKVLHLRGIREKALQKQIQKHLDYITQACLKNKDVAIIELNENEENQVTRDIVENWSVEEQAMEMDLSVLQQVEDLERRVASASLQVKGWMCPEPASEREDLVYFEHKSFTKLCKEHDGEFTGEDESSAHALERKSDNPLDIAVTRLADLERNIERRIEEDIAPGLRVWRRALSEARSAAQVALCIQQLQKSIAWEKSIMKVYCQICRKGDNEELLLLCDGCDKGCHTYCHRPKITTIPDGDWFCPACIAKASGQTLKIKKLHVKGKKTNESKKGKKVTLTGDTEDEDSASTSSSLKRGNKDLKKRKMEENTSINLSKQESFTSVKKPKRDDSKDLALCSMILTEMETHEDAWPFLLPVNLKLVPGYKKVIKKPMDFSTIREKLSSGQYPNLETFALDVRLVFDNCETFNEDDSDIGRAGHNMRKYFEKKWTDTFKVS
SMILES,"activity change, negative = inhibition",Potency
CCCCOC(=O)c1ccc(NC(=O)C2(c3cccs3)CCOCC2)cc1,inactive: 18.5%,
CCOC(=O)c1c(NC(=O)CSc2cn(CCNC(=O)c3ccc(OC)cc3)c3ccccc23)sc2c1CCC2,inactive: -38.8%,
O=C(NCc1ccco1)c1cc2ccc(O)cc2oc1=O,,active: 56.2 µM
CCCCNC(=O)CSc1ccc(S(=O)(=O)N2CCOCC2)cn1,inactive: -4.71%,
CC1CCCN(c2ccc(C(=O)NCc3ccc4c(c3)OCO4)cc2[N+](=O)[O-])C1 (configuration not stated),,"inconclusive: 12.6 µM [inhibitor, full curve]"
COc1ccc(OC)c(/C=C/C(=O)N2CCCc3ccccc32)c1,,"inconclusive: 31.6 µM [inhibitor, partial curve]"
Cc1cccc2c(N=NC(=O)c3ccc(NS(=O)(=O)c4cccs4)cc3)c(O)[nH]c12,,"inconclusive: 89.1 µM [inhibitor, single point]"
CCN(CCNC(=O)c1cccc(N2CCCC2=O)c1)c1ccccc1,inactive: -26.8%,
CC1CN(C(=O)COC(=O)Cc2ccc(Cl)cc2)CC(C)O1 (configuration not stated),inactive: 31.6%,
O=c1c2ccccc2nc(COc2ccccc2)n1/N=C/c1ccc(O)cc1O,,"inconclusive: 39.8 µM [inhibitor, partial curve]"
C/C(=N\NC(=O)c1ccc(NS(=O)(=O)c2cccs2)cc1)c1ccc(O)cc1O,,active: 10 µM
S=C(Nc1ccc2c(c1)OCO2)Nc1ccc2c(c1)OCO2,,"inconclusive: 79.4 µM [inhibitor, single point]"
COc1ccc(C(=O)Nc2ccc(Cn3ccnc3)cc2)cc1OC,inactive: -36.6%,
CN(C)C1=NC(=O)/C(=C/c2ccc(-c3ccc(S(N)(=O)=O)cc3)o2)S1,,"inconclusive: 79.4 µM [inhibitor, single point]"
COc1ccc(NC(=O)CS(=O)(=O)c2cccc(Cl)c2)cc1,inactive: -15.8%,
Cc1cccc(NC(=S)NC2CCSc3ccccc32)c1 (configuration not stated),,"inconclusive: 44.7 µM [inhibitor, partial curve]"
CCc1nnc(NS(=O)(=O)c2ccc(NC(=S)NC(=O)/C=C/c3ccc(F)cc3)cc2)s1,,active: 50.1 µM
CCC(CC)NC(=O)CCCSc1nc2ccccc2[nH]1,inactive: 2.22%,
CCOC(=O)c1c(NC(=O)CN2CCN(C(=O)c3ccco3)CC2)sc2c1CCCC2,,"inconclusive: 44.7 µM [inhibitor, partial curve]"
CC1CC(C)CN(C(=O)c2ccc3c(c2NCCO)C(=O)c2ccccc2C3=O)C1 (configuration not stated),,"inconclusive: 44.7 µM [inhibitor, single point]"
CC1=C(C(=O)Nc2ccc(Cl)cc2)C(c2cccs2)n2nc(SCc3cccc(Cl)c3)nc2N1 (configuration not stated),inactive: -8.86%,
Cc1cccc(S(=O)(=O)c2cn(Cc3ccccc3)c3cc(N4CCC(C)CC4)c(F)cc3c2=O)c1,inactive: 10.5%,
COc1ccccc1CN(C)C(=O)c1cccc(S(=O)(=O)N2CCN(Cc3ccccc3)CC2)c1,,"inconclusive: 79.4 µM [inhibitor, single point]"
CC(C)c1ccc(NC(=O)CCCC(=O)NCCc2ccccc2)cc1,inactive: -6.05%,
CCOc1cc2[nH]c(=S)n(Cc3ccc(C(=O)N4CCN(C)CC4)cc3)c(=O)c2cc1OCC,,"inconclusive: 63.1 µM [inhibitor, partial curve]"
Cc1cc(C)c2c(=O)n(CC(=O)Nc3ccc(Cl)cc3)sc2n1,,active: 39.8 µM

SMILES,"activity change, negative = inhibition",Potency
Cc1ccc(N(CCC#N)C(=O)CN2C(=O)NC(Cc3ccccc3)C2=O)cc1 (configuration not stated),inactive: -12.7%,
CCC(C)C(=O)Nc1nc(C)c(-c2csc(Nc3ccccc3OC)n2)s1 (configuration not stated),,"inconclusive: 56.2 µM [inhibitor, partial curve]"
C1=C(CCNc2nnnn2-c2ccccc2)CCCC1,inactive: 7.05%,
Cn1c(=O)[nH]c(=O)c2[nH]c(CN3CCN(Cc4ccccc4)CC3)nc21,inactive: -14.6%,
CCCCCC(=O)Nc1ccc(C(=O)CN2C(=O)NC3(CCCCCC3)C2=O)cc1,inactive: -5.09%,
Fc1ccccc1/C=N/Nc1ncnc2ccccc12,,"inconclusive: 44.7 µM [inhibitor, partial curve]"
CCN(CC)c1ccc(NC(=O)CCS(=O)(=O)c2cccc3nsnc23)c(C)c1,,"inconclusive: 50.1 µM [inhibitor, partial curve]"
CCOC(=O)c1[nH]c(C)c(CCC(=O)Nc2cc(Cl)ccc2C)c1C,inactive: 9.29%,
Cc1cccc(-c2cc(C(=O)Nc3c(C)n(C)n(-c4ccccc4)c3=O)c3ccccc3n2)c1,,"inconclusive: 44.7 µM [inhibitor, partial curve]"
COc1ccc(NC(=O)NCc2cccn2C)c(OC)c1,,"inconclusive: 44.7 µM [inhibitor, partial curve]"
Cn1ncc([N+](=O)[O-])c1C(=O)Nc1ccn(Cc2ccccc2F)n1,inactive: -27.9%,
COc1cc(OC)c(NC(=O)C(C)n2c(=O)cc(-c3ccccc3)c3c(C)nn(C)c32)cc1Cl (configuration not stated),,"inconclusive: 89.1 µM [inhibitor, single point]"
CNc1nc(N)c(C(=O)C23CC4CC(CC(C4)C2)C3)s1,,"inconclusive: 50.1 µM [inhibitor, partial curve]"
Cc1ccc(-c2csc(NC(=O)CSC3=NCCS3)n2)cc1,inactive: -3.34%,
CC1CCCC/C1=N\NC(=S)NCCc1ccccc1 (configuration not stated),,"inconclusive: 44.7 µM [inhibitor, partial curve]"
S=C(NC1CCCCC1)N1CCN(C/C=C/c2ccccc2)CC1,,"inconclusive: 50.1 µM [inhibitor, partial curve]"
N#C/C(=C\c1ccccc1)C(=O)Nc1nncs1,inactive: -19.7%,
COc1cccc(CN2CCCC(C(=O)N3CCCCC3)C2)c1 (configuration not stated),,"inconclusive: 79.4 µM [inhibitor, single point]"
Cc1nc2nc(COc3ccccc3)[nH]n2c(=O)c1Cl,,"inconclusive: 89.1 µM [inhibitor, single point]"
CCc1ccc(S(=O)(=O)/N=C2\C=C(Nc3ccc(O)cc3)C(=O)c3ccccc32)cc1,,active: 8.91 µM
Cc1ccc(S(=O)(=O)N2CCN(Cc3ccccc3C(F)(F)F)CC2)cc1,,active: 56.2 µM
CC(C)CCNc1cc(=O)n(C)c(=O)n1C,,"inconclusive: 89.1 µM [inhibitor, single point]"
COc1ccc(CN2CCNC(=O)C2CC(=O)NCc2cccc(C)n2)c(OC)c1 (configuration not stated),,"inconclusive: 89.1 µM [inhibitor, single point]"
CCOc1ccc(-n2c(-c3ccc(OC)cc3)cc3c2CC(C)(C)CC3=O)cc1,,active: 12.6 µM
CC1CN(c2ccc([N+](=O)[O-])cc2C#N)CC(C)O1 (configuration not stated),inactive: -18.8%,
CC(C)NC(=O)C(C)Oc1ccc(S(=O)(=O)NCc2ccc3c(c2)OCO3)cc1 (configuration not stated),inactive: -4.1%,

SMILES,"activity change, negative = inhibition",Potency
CN(C)c1nc(N/N=C/c2ccccc2O)nc(Nc2ccc(F)cc2)n1,,"inconclusive: 44.7 µM [inhibitor, single point]"
COc1cc(/C=N/NC(=O)Cc2csc(C)n2)ccc1OCC(C)C,,"inconclusive: 56.2 µM [inhibitor, partial curve, poor fit]"
Cc1ccc(CN2CCN(/N=C/C=C/c3ccccc3[N+](=O)[O-])CC2)cc1,,active: 20 µM
COc1ccc2cc(C(C)C(=O)OC(C)C)ccc2c1 (configuration not stated),inactive: 130%,
COc1cccc(CNC(C)C(=O)Nc2ccc3c(c2)OCCO3)c1 (configuration not stated),,"inconclusive: 79.4 µM [inhibitor, partial curve]"
O=C(Nc1ncccc1O)c1ccc(OCC2CCCO2)cc1 (configuration not stated),,active: 79.4 µM
Cn1c(NCc2ccccc2O)nc2ccccc21,inactive: 0.914%,
O=C(NCc1ccco1)c1cc(-c2ccccc2)c(N2CCOCC2)s1,inactive: -12.1%,
Cc1ccc(NC(=O)CC2Sc3ccccc3NC2=O)c(C)c1 (configuration not stated),inactive: 19.2%,
Cc1ccsc1CN1CCN(c2ccccn2)CC1,,active: 50.1 µM
Cc1oc(-c2ccc(C(=O)N(C)Cc3ccccc3)cc2)nc1CN1CCc2ccccc21,,active: 25.1 µM
COc1ccc(CCNC(=O)CSCc2ccc([N+](=O)[O-])cc2)cc1OC,inactive: -5.88%,
COc1ccc(N2CCN(CC(O)COc3ccc(C)c(C)c3)CC2)cc1 (configuration not stated),,active: 44.7 µM
Cc1ccc(-n2nc3c(=O)n(CC(=O)NCCc4ccc(Cl)cc4)nc(C)c3c2C)cc1,,active: 79.4 µM
COCc1nnc(NC(=O)CS(=O)(=O)Cc2ccccc2)s1,,"inconclusive: 79.4 µM [inhibitor, single point]"
CCOc1cccc(NC(=O)CSc2ncc(-c3ccc(Cl)cc3)[nH]2)c1,inactive: -26.2%,
Cc1csc(NC(=O)c2cc(-c3ccco3)nc3ccccc23)n1,,"inconclusive: 70.8 µM [inhibitor, single point]"
CCN1C(C(=O)c2ccccc2)=C(OC(=O)c2ccc(Cl)cc2)c2ccccc2S1(=O)=O,inactive: -35%,
CC12CCC(C(=O)N(CCCN3CCN(Cc4ccccc4)CC3)C1=O)C2(C)C (configuration not stated),,active: 50.1 µM
CCc1ccc2oc(-c3cccc(NC(=O)c4ccc(-c5cccc([N+](=O)[O-])c5)o4)c3)nc2c1,,"inconclusive: 79.4 µM [inhibitor, single point]"
CN(C)c1ccc(P(=O)(OCc2ccccc2)C(O)c2ccccc2F)cc1 (configuration not stated),,"inconclusive: 89.1 µM [inhibitor, single point]"
O=S(=O)(Nc1ccc(Br)cn1)c1cccs1,,"inconclusive: 79.4 µM [inhibitor, single point]"
COc1cccc(CN2c3ccccc3-c3nc(SCC(=O)Nc4cccc(C)c4)ncc3S2(=O)=O)c1,inactive: -1.45%,
COc1ccc(-c2csc(C3=C(O)CN(C(C)C)C3=N)n2)cc1OC,,"inconclusive: 44.7 µM [inhibitor, partial curve]"
Cc1c(OCC(=O)NCc2ccncc2)ccc2c3c(c(=O)oc12)CCC3,,"inconclusive: 0.708 µM [inhibitor, full curve, poor fit]"
